# Measured values published in the supplement of paper PMC7826260.
# Some of the results follow. One pool of 16,384 single-stranded DNAs met each Rep nickase domain in vitro (1 h at 37 °C, 3 µM enzyme); the outer parts of the 90-letter strands are left off. A value is the log2 ratio of uncut reads to the pool without enzyme; more negative means more cut, near 0 not cut, and no call is made. Counts are relative to all reads; uncut strands gain when others are lost, and binding without cutting may add a little.
# Experiments:
# Experiment in all cases: uncleaved DNA left, log2 of reads against the no-enzyme library (log2 ratio); higher = less cleavage (more negative = more Rep cleavage of the k-mer); sequences stand for … in CTCGTCCG…ACCGGAGA
# [1] = test system: T1, Rep nickase domain of Muscovy duck circovirus
# T1 sequence (protein, residues 1-111, tag omitted): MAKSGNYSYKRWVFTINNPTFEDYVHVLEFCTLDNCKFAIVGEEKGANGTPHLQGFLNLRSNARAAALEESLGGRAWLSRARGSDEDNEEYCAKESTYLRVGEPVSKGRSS
# Protocol: (§1)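 A pool of 90-nt single-stranded DNAs with seven random bases just before the constant AC of the nick site (name = the seven bases) was cut by 3 µM recombinant His6-SUMO-tagged Rep nickase domain (300 nM DNA, 50 mM HEPES pH 8.0, 50 mM NaCl, 1 mM MnCl2, 1 h, 37 °C, three replicates). Uncut DNA was amplified and sequenced.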
# [2] = test system: T2, Rep nickase domain of banana bunchy top virus
# T2 sequence (protein, residues 1-94, tag omitted): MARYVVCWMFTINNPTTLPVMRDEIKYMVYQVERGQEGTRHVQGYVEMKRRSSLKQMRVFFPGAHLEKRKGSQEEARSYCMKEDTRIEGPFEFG
# Protocol: as §1
# [3] = test system: T3, Rep nickase domain of cabbage leaf curl virus
# T3 sequence (protein, residues 1-116, tag omitted): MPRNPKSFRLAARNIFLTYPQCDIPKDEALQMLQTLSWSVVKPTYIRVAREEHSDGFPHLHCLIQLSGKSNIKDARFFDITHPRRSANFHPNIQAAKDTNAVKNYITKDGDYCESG
# Protocol: as §1
# [4] = test system: T4, Rep nickase domain of chickpea chlorotic dwarf virus
# T4 sequence (protein, residues 1-124, tag omitted): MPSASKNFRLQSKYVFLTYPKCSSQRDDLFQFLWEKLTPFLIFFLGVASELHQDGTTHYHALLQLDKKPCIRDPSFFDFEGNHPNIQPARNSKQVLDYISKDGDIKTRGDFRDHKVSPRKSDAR
# Protocol: as §1
# [5] = test system: T5, Rep nickase domain of faba bean necrotic yellows virus
# T5 sequence (protein, residues 1-98, tag omitted): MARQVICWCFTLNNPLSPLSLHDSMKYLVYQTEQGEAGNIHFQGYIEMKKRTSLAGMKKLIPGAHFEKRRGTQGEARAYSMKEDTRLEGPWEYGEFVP
# Protocol: as §1
# [6] = test system: T6, Rep nickase domain of maize striate mosaic virus
# T6 sequence (protein, residues 1-117, tag omitted): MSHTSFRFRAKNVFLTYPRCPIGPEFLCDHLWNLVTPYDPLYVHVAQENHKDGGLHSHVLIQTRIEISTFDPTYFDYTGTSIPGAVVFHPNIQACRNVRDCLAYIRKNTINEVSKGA
# Protocol: as §1
# [7] = test system: T7, Rep nickase domain of porcine circovirus 2
# T7 sequence (protein, residues 2-116, tag omitted): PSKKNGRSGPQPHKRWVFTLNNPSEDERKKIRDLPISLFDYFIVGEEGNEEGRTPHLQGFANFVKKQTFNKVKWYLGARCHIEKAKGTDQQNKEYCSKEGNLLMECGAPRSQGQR
# Protocol: as §1
# [8] = test system: T8, Rep nickase domain of tomato golden mosaic virus
# T8 sequence (protein, residues 1-124, tag omitted): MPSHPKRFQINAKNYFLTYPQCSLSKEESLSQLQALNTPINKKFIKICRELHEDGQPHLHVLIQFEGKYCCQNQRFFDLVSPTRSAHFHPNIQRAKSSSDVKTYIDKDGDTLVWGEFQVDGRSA
# Protocol: as §1
# [9] = test system: T9, Rep nickase domain of tomato yellow leaf curl virus
# T9 sequence (protein, residues 1-136, tag omitted): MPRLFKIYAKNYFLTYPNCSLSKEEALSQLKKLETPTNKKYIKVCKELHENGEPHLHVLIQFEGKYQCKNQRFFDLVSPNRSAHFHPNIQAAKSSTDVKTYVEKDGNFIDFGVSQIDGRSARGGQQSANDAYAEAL
# Protocol: as §1
# [10] = test system: T10, Rep nickase domain of wheat dwarf virus
# T10 sequence (protein, residues 1-137, tag omitted): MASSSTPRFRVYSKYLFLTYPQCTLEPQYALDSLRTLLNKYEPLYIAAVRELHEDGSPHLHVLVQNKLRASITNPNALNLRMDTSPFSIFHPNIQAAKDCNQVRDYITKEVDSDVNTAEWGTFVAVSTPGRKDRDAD
# Protocol: as §1
Sequence,uncleaved DNA left (log2) [1],uncleaved DNA left (log2) [2],uncleaved DNA left (log2) [3],uncleaved DNA left (log2) [4],uncleaved DNA left (log2) [5],uncleaved DNA left (log2) [6],uncleaved DNA left (log2) [7],uncleaved DNA left (log2) [8],uncleaved DNA left (log2) [9],uncleaved DNA left (log2) [10]
TGTTGAG,0.147,-0.00675,-0.858,0.0343,0.0446,-0.936,0.224,0.00584,0.182,-0.121
TGAAATG,0.00754,-0.0765,-0.286,-0.197,-0.0299,-0.615,0.0066,-0.0236,-0.0761,0.026
AATGACG,-0.0493,-0.0534,-0.649,-0.704,-0.0194,-1.1,0.0729,0.0186,-0.00776,-0.0999
ACGAAAG,0.0296,-0.0165,-0.646,-0.37,-0.0151,-1.06,0.255,0.107,0.04,0.017
GACAGAT,0.129,0.131,0.518,1.06,0.0286,1.48,0.168,0.0598,0.0858,0.205
ACTCGTG,0.108,0.138,-0.681,-0.274,0.194,-0.882,0.235,0.06,0.0433,-0.0473
CTTGACA,0.0951,0.011,-0.0312,-1.91,0.0205,-0.141,0.0475,-0.0444,0.106,0.0286
TCGAATT,0.172,-0.0319,-0.036,-2.05,-0.0281,-0.0804,-2.33,-0.034,-0.055,0.0131
AGCTCCA,-0.0641,-0.0487,0.0727,-0.0928,-0.0533,0.489,-0.753,-0.117,0.0662,0.0203
GATTTAT,-2.26,-1.45,0.288,0.684,-0.182,1.46,-2.73,0.0434,0.187,0.0927
GATGCCT,0.123,0.0176,0.0564,-0.817,-0.0241,0.247,-0.0694,-0.0212,-0.0221,0.102
GATCTCG,0.0952,0.0527,-0.75,-0.481,0.0244,-0.958,0.128,-0.00446,-0.00156,0.0115
TTCTCGT,0.00385,-0.0907,-0.226,-0.903,-0.0925,-0.84,-0.214,-0.155,-0.102,-0.123
GGCGACA,-0.0716,0.0566,0.378,1.44,0.0171,1.98,0.0426,-0.0663,-0.077,0.0466
GCGGAGC,-0.231,-0.104,0.199,0.718,-0.0858,0.782,0.0156,-0.0208,-0.1,-0.0438
